Laboratory results as given in the supplement of paper PMC3334620.
Over roughly 33,000 sequences, “E-score (-0.5 to 0.5)” has its median near -0.043; the highest 2% begin near 0.37. The list shows a part of the results.

Target: T1, Upc2 (UniProt Q12151)
T1 sequence: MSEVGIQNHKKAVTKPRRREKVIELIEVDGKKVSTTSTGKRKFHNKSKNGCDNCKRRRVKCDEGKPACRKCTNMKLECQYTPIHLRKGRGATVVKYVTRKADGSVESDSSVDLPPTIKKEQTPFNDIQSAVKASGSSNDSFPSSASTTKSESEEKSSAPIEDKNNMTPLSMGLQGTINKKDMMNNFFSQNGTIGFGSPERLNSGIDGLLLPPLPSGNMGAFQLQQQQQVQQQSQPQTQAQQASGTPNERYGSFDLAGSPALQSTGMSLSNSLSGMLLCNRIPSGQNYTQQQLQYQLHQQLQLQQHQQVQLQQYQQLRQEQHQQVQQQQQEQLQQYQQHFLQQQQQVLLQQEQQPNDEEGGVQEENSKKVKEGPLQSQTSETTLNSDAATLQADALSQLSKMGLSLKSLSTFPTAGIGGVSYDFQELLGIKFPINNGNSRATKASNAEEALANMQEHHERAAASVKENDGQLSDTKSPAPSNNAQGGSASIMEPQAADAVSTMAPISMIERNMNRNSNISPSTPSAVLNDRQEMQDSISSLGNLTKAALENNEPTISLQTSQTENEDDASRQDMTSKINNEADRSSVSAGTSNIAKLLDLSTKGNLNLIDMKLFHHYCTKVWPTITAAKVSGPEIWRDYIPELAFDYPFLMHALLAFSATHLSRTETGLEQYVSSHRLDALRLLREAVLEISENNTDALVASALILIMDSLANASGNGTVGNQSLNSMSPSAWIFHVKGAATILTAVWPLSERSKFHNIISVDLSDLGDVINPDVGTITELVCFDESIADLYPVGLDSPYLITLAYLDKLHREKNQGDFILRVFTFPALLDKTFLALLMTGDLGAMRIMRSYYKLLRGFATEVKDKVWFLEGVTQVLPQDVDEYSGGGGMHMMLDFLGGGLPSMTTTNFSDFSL
Test: PBM E-score (8-mer binding enrichment) (E-score (-0.5 to 0.5)); higher = stronger / more preferred TF binding; most listed sequences are background and not binding sites
Details: protein concentration: 200 nM; construct: GST-full length
In short: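 Yeast transcription factors carrying a GST tag, as full-length proteins or DNA-binding domains, were produced by PURExpress in vitro transcription/translation. About 100-200 nM protein was applied to universal all-10-mer Agilent arrays, double-stranded by primer extension on fresh or once-stripped slides. Bound protein was detected with fluorescent anti-GST, and scans were normalised with masliner. The Universal PBM Analysis Suite gave each ungapped eight-base word, pooled with its reverse complement, an E-score, a modified Wilcoxon-Mann-Whitney statistic.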

| Sequence | PBM E-score |
| --- | --- |
| AAACCCTC | -0.0554 |
| ACAGAACC | -0.0301 |
| ATGGACAT | -0.0883 |
| CCTCTTTA | -0.0357 |
| GTAGTGTA | 0.0913 |
| CCCGTAAG | 0.208 |
| ACCATTTC | -0.123 |
| AACCCATC | 0.0211 |
| ACTCTGCA | -0.0912 |
| GCGAGCCA | 0.0419 |
| CAGATCGG | -0.232 |
| CGTACAGC | 0.446 |
| ATTATTGG | -0.185 |
| GCTAAAGC | -0.12 |
| CCTAGATC | -0.189 |
| GACCCAAA | 0.0391 |
| GGCAAGAC | -0.0253 |
| CGCCACCC | -0.0595 |
| TAAGTGAA | 0.0481 |
| ATCACCTG | -0.276 |
| GCCCTCCC | -0.166 |
| AGCGATAT | 0.206 |
| CAAAATAC | 0.0567 |
| CCAATTGA | -0.181 |
| GTTATTCA | 0.0638 |

| Sequence | PBM E-score |
| --- | --- |
| ATGCACTA | 0.205 |
| AACAGGCG | -0.0444 |
| GCGTGGCA | -0.0806 |
| ATAATGTA | 0.108 |
| CAGTGTTA | 0.0185 |
| ACCCGACC | 0.186 |
| GATCGACC | -0.0213 |
| TAGGGCAA | -0.27 |
| CAGTCATA | -0.0419 |
| CCGCTTGA | -0.135 |
| CAGCTATG | -0.0431 |
| CATGGACA | -0.178 |
| AGTGACAG | -0.136 |
| GATCAGAA | -0.111 |
| CATTCAGC | -0.213 |
| AAGGGCAA | -0.103 |
| ATACCCCG | -0.0331 |
| CATGTCCA | -0.197 |
| CTACCCAA | -0.0471 |
| GTCGCGCA | -0.0575 |
| CTACAAAG | -0.188 |
| GGCCTGAA | -0.234 |
| GGAAACCA | -0.29 |
| CAATCAAC | -0.0667 |
| ACTTGTCG | 0.103 |

| Sequence | PBM E-score |
| --- | --- |
| AGTTTCTC | -0.102 |
| AAATGTAA | 0.068 |
| ACAGCGTA | 0.192 |
| GAAGGACA | 0.00331 |
| ACTCTACG | 0.311 |
| ATTCTGCG | -0.0373 |
| AATCTGGC | -0.198 |
| GATGCTCA | -0.0681 |
| AACGAGCG | 0.442 |
| AAGTCGCG | 0.116 |
| TAAAATAA | 0.07 |
| CGGACTTC | -0.0609 |
| GCTCGACC | -0.101 |
| ACAGTAAT | -0.0738 |
| GGACAGTA | 0.127 |
| CACCTGAA | 0.0344 |
| CTGCTTTA | 0.00847 |
| TCGGTTCA | 0.106 |
| CACCTATC | -0.0764 |
| CTACCGGA | -0.35 |
| ATACCATA | 0.108 |
| ACGCCCGT | 0.271 |
| CGTTGAGC | 0.0875 |
| TGGACGAA | -0.0418 |
| AAATAACT | 0.0621 |

| Sequence | PBM E-score |
| --- | --- |
| CATTAAGG | -0.167 |
| CGACACCG | 0.206 |
| AGCTATGG | -0.158 |
| CTGGTGCC | -0.116 |
| CAACCTAA | -0.0826 |
| GAAAGGCA | -0.271 |
| GGAGTGGA | -0.165 |
| ACGGCGAA | 0.254 |
| ATCTGTAC | 0.271 |
| CATGAAAC | 0.0651 |
| TACGTCCA | 0.117 |
| CCCTGGTA | -0.129 |
| GTCGACGA | 0.0537 |
| AGTGATCG | 0.122 |
| ATGAACGG | 0.261 |
| CTAGCGTC | -0.0808 |
| ACTGTATA | 0.15 |
| AGGATCAC | -0.133 |
| CCCTCAAG | -0.199 |
| CTGACGTA | 0.164 |
| CTCGGTGA | -0.0184 |
| CAAAGAAC | -0.0158 |
| ACCTCAAC | 0.0128 |
| CCATCAGA | -0.0736 |
| GTATAGAA | 0.345 |

| Sequence | PBM E-score |
| --- | --- |
| GCGCAGAC | 0.0613 |
| CTCCCGAC | 0.0661 |
| AAGGCTTC | -0.219 |
| ACGCGATG | 0.0853 |
| CCAGAAGA | -0.179 |
| CCTTTCAA | -0.0604 |
| CCTACAAG | -0.0492 |
| GAGAGATA | -0.0189 |
| ATGATAGA | -0.0594 |
| CGACTCTA | 0.0472 |
| CCCTGACC | -0.0503 |
| CACCACAG | -0.225 |
| ACCAAACA | 0.208 |
| ACAGCCCC | -0.0371 |
| CAGAAATG | -0.163 |
| GGGTGAGA | -0.369 |
| CGGTTCAG | 0.0368 |
| ACTCCCAA | -0.165 |
| CTCGAAAG | 0.0537 |
| CGTTCTAG | 0.248 |
| CTAGACAG | -0.209 |
| ACTAGTAC | -0.0146 |
| CAATGACA | -0.196 |
| CTACAGCA | -0.168 |
| GAGACCAA | -0.0848 |

| Sequence | PBM E-score |
| --- | --- |
| AATTAAGA | -0.0906 |
| GATCTTCA | -0.108 |
| GCCTTTTA | 0.141 |
| ACTAAAAA | 0.0796 |
| ACGATGAG | 0.257 |
| GTGTGCAA | 0.0917 |
| GAGACATA | 0.022 |
| CGATCACA | 0.0286 |
| CCCTAATA | -0.235 |
| GCTGTTGA | -0.152 |
| GCATTCAA | 0.0027 |
| CATAAGTA | -0.0927 |
| CGCCTGAG | -0.255 |
| GAAATAAA | 0.127 |
| CGACCGCG | 0.168 |
| ACACACCT | 0.0105 |
| AATGGTAA | 0.0673 |
| CAAACTGA | -0.118 |
| CCACCCCA | -0.202 |
| CGGACGCA | 0.0166 |
| ATATTACG | 0.254 |
| CGCCTCGC | 0.131 |
| CGCCCGTA | 0.317 |
| ACCACGAG | 0.0246 |
| AGCTTGTC | -0.0906 |

| Sequence | PBM E-score |
| --- | --- |
| AATGATCG | 0.2 |
| ATTTATAG | -0.0756 |
| ATGGGACA | -0.24 |
| GCACGGCC | -0.272 |
| ACTATGAT | -0.199 |
| ACATTAGC | 0.168 |
| CATTAGAA | 0.112 |
| ACTTACTC | -0.303 |
| CAGGACAG | -0.0912 |
| ATCAAATC | -0.078 |
| AATTGAGA | 0.0759 |
| CCGATTAC | 0.0565 |
| GAGGCCAA | 0.0795 |
| GGGCACCC | -0.208 |
| ACCAGTAT | 0.0479 |
| TACCACTA | 0.0459 |
| AAGAAACA | -0.0862 |
| ACCTGGCA | -0.0766 |
| ATCTTATG | -0.173 |
| ACTGGGTA | 0.158 |
| AAATTTCA | -0.169 |
| GTAGACCA | -0.114 |
